# The other results are listed elsewhere or left out.
# B1: Epa1 (Candida glabrata) (protein)
# chain: MGSSHHHHHHSSGLVPRGSHMTSSNDISLASKDPTTFPLGCSPDITTPKKGLSMELYSYDFRKKGSYPCWDAAYLDPNYPRTGYKSHRLLAKVDGVTGNINFYYHATKGCTPQLGHLPASYNYPKPLTMTNFTMLLYGYFRPKVTGFHTFTISADDLLFVNFGAGNAFDCCRRDSSADHFGNYQAYAIWGSKTAKDELTVHLDAGVYYPIRLFYNNREYDGALSFTFKTESNENTVSDFSEYFFSLDDTEEGCPGLISYD
# Assays:
# Test in all cases: glycan array binding signal (z-score within array); higher = stronger binding
# Details in all cases: glycan notation: IUPAC condensed, linker removed
# GalNAc(b1-4)GlcNAc = target: GalNAc(b1-4)GlcNAc
# Procedure, shortened: (§1)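 Glycan array binding is given as a within-array Z-score, which can be read as non-binding when negative. The arrays, 3228 of them, came from the Consortium for Functional Glycomics database and were retained only where the protein sequence was available. Z-scores were averaged across arrays of the same protein sequence at different concentrations or buffers and across linkers.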
# [1] = target: GalNAc(b1-4)GlcNAc(b1-2)Man
# Procedure, shortened: as §1
# [2] = target: GalNAc(b1-4)GlcNAc(b1-2)Man(a1-3)[GalNAc(b1-4)GlcNAc(b1-2)Man(a1-6)]Man(b1-4)GlcNAc(b1-4)GlcNAc
# Procedure, shortened: as §1
# [3] = target: GalNAc(b1-4)GlcNAc(b1-3)GalNAc(b1-4)GlcNAc
# Procedure, shortened: as §1
# GalNAc(b1-4)GlcNAc6S = target: GalNAc(b1-4)GlcNAc6S
# Procedure, shortened: as §1
# GalNAc(b1-6)GalNAc = target: GalNAc(b1-6)GalNAc
# Procedure, shortened: as §1
# GalNAc3S(b1-4)GlcNAc = target: GalNAc3S(b1-4)GlcNAc
# Procedure, shortened: as §1
# GalNAc3S(b1-4)GlcNAc3S = target: GalNAc3S(b1-4)GlcNAc3S
# Procedure, shortened: as §1
# [4] = target: GalNAc3S(b1-4)[Fuc(a1-3)]GlcNAc
# Procedure, shortened: as §1
# GalNAc4S6S(b1-4)GlcNAc = target: GalNAc4S6S(b1-4)GlcNAc
# Procedure, shortened: as §1
# GalNAc6S(b1-4)GlcNAc = target: GalNAc6S(b1-4)GlcNAc
# Procedure, shortened: as §1
# Glc(a1-4)Glc = target: Glc(a1-4)Glc
# Procedure, shortened: as §1
# [5] = target: Glc(a1-4)Glc(a1-4)Glc(a1-4)Glc
# Procedure, shortened: as §1
# Glc(a1-6)Glc(a1-6)Glc = target: Glc(a1-6)Glc(a1-6)Glc
# Procedure, shortened: as §1
# [6] = target: Glc(a1-6)Glc(a1-6)Glc(a1-6)Glc
# Procedure, shortened: as §1
# Glc(b1-4)Glc = target: Glc(b1-4)Glc
# Procedure, shortened: as §1
# Glc(b1-6)Glc = target: Glc(b1-6)Glc
# Procedure, shortened: as §1
# GlcA(b1-3)Gal = target: GlcA(b1-3)Gal
# Procedure, shortened: as §1
# GlcA(b1-3)GlcNAc = target: GlcA(b1-3)GlcNAc
# Procedure, shortened: as §1
# GlcA(b1-6)Gal = target: GlcA(b1-6)Gal
# Procedure, shortened: as §1
# [7] = target: GlcA3S(b1-3)Gal(b1-4)GlcNAc(b1-2)Man
# Procedure, shortened: as §1
# [8] = target: GlcA3S(b1-3)Gal(b1-4)GlcNAc(b1-3)Gal(b1-4)Glc
# Procedure, shortened: as §1
# [9] = target: GlcNAc(a1-3)Gal(b1-4)GlcNAc
# Procedure, shortened: as §1
# [10] = target: GlcNAc(a1-4)Gal(b1-3)GlcNAc
# Procedure, shortened: as §1
# [11] = target: GlcNAc(a1-4)Gal(b1-4)GalNAc
# Procedure, shortened: as §1
# [12] = target: GlcNAc(a1-4)Gal(b1-4)GlcNAc
# Procedure, shortened: as §1
# [13] = target: GlcNAc(a1-4)Gal(b1-4)GlcNAc(b1-3)Gal(b1-4)Glc
# Procedure, shortened: as §1
# [14] = target: GlcNAc(a1-4)Gal(b1-4)GlcNAc(b1-3)Gal(b1-4)GlcNAc
# Procedure, shortened: as §1
# [15] = target: GlcNAc(a1-4)Gal(b1-4)GlcNAc(b1-3)Gal(b1-4)GlcNAc(b1-3)Gal(b1-4)GlcNAc
# Procedure, shortened: as §1
# [16] = target: GlcNAc(a1-4)Gal(b1-4)GlcNAc(b1-3)Gal(b1-4)[Fuc(a1-3)]GlcNAc(b1-3)Gal(b1-4)[Fuc(a1-3)]GlcNAc
# Procedure, shortened: as §1
# [17] = target: GlcNAc(a1-6)Gal(b1-4)GlcNAc
# Procedure, shortened: as §1
# [18] = target: GlcNAc(b1-2)Gal(b1-3)GalNAc
# Procedure, shortened: as §1
# [19] = target: GlcNAc(b1-2)Man(a1-3)[GlcNAc(b1-2)Man(a1-6)]Man(b1-4)GlcNAc(b1-4)GlcNAc
# Procedure, shortened: as §1
# [20] = target: GlcNAc(b1-2)Man(a1-3)[GlcNAc(b1-2)Man(a1-6)]Man(b1-4)GlcNAc(b1-4)[Fuc(a1-6)]GlcNAc
# Procedure, shortened: as §1
# [21] = target: GlcNAc(b1-2)Man(a1-3)[GlcNAc(b1-4)][GlcNAc(b1-2)Man(a1-6)]Man(b1-4)GlcNAc(b1-4)GlcNAc
# Procedure, shortened: as §1
# [22] = target: GlcNAc(b1-2)Man(a1-3)[GlcNAc(b1-4)][GlcNAc(b1-2)Man(a1-6)]Man(b1-4)GlcNAc(b1-4)[Fuc(a1-6)]GlcNAc
# Procedure, shortened: as §1
# [23] = target: GlcNAc(b1-2)[GlcNAc(b1-4)]Man(a1-3)[GlcNAc(b1-2)Man(a1-6)]Man(b1-4)GlcNAc(b1-4)GlcNAc
# Procedure, shortened: as §1
binder,measurement,setting,value
B1,glycan array binding signal (z-score),GalNAc(b1-4)GlcNAc,-0.255
same,glycan array binding signal (z-score),[1],-0.306
same,glycan array binding signal (z-score),[2],-0.242
same,glycan array binding signal (z-score),[3],-0.355
same,glycan array binding signal (z-score),GalNAc(b1-4)GlcNAc6S,-0.279
same,glycan array binding signal (z-score),GalNAc(b1-6)GalNAc,-0.318
same,glycan array binding signal (z-score),GalNAc3S(b1-4)GlcNAc,-0.321
same,glycan array binding signal (z-score),GalNAc3S(b1-4)GlcNAc3S,-0.268
same,glycan array binding signal (z-score),[4],-0.321
same,glycan array binding signal (z-score),GalNAc4S6S(b1-4)GlcNAc,-0.259
same,glycan array binding signal (z-score),GalNAc6S(b1-4)GlcNAc,-0.259
same,glycan array binding signal (z-score),Glc(a1-4)Glc,-0.345
same,glycan array binding signal (z-score),[5],-0.282
same,glycan array binding signal (z-score),Glc(a1-6)Glc(a1-6)Glc,-0.354
same,glycan array binding signal (z-score),[6],-0.297
same,glycan array binding signal (z-score),Glc(b1-4)Glc,-0.363
same,glycan array binding signal (z-score),Glc(b1-6)Glc,-0.274
same,glycan array binding signal (z-score),GlcA(b1-3)Gal,-0.286
same,glycan array binding signal (z-score),GlcA(b1-3)GlcNAc,-0.28
same,glycan array binding signal (z-score),GlcA(b1-6)Gal,0.89
same,glycan array binding signal (z-score),[7],-0.3
same,glycan array binding signal (z-score),[8],-0.327
same,glycan array binding signal (z-score),[9],-0.294
same,glycan array binding signal (z-score),[10],-0.365
same,glycan array binding signal (z-score),[11],-0.365
same,glycan array binding signal (z-score),[12],-0.251
same,glycan array binding signal (z-score),[13],-0.322
same,glycan array binding signal (z-score),[14],-0.322
same,glycan array binding signal (z-score),[15],-0.279
same,glycan array binding signal (z-score),[16],-0.191
same,glycan array binding signal (z-score),[17],3.02
same,glycan array binding signal (z-score),[18],-0.263
same,glycan array binding signal (z-score),[19],-0.308
same,glycan array binding signal (z-score),[20],-0.31
same,glycan array binding signal (z-score),[21],-0.336
same,glycan array binding signal (z-score),[22],-0.296
same,glycan array binding signal (z-score),[23],-0.252
